The chains are these.
B1: GPR68, Q15743 (parent)
chain: MGNITADNSSMSCTIDHTIHQTLAPVVYVTVLVVGFPANCLSLYFGYLQIKARNELGVYLCNLTVADLFYICSLPFWLQYVLQHDNWSHGDLSCQVCGILLYENIYISVGFLCCISVDRYLAVAHPFRFHQFRTLKAAVGVSVVIWAKELLTSIYFLMHEEVIEDENQHRVCFEHYPIQAWQRAINYYRFLVGFLFPICLLLASYQGILRAVRRSHGTQKSRKDQIQRLVLSTVVIFLACFLPYHVLLLVRSVWEASCDFAKGVFNAYHFSLLLTSFNCVADPVLYCFVSETTHRDLARLRGACLAFLTCSRTGRAREAYPLGAPEASGKSGAQGEEPELLTKLHPAFQTPNSPGSGGFPTGRLA

The least precise scores are not listed. Two further conditions of the source, in which the scores hardly spread, are not listed. Names with del lack the residues named; names with ins carry added residues between the positions named. For some of these results: The data file names ogerin without a concentration.

Variants of B1 are the subject of series [1]. The series can be described thus: cAMP reporter score (Enrich2 score, wild type = 0); higher = more signal; HEK293T, FACS bins.
The variants in series [2] derive from B1. The series can be described thus: surface expression score (Enrich2 score, wild type = 0); higher = more signal; HEK293T, FACS bins.

This is an account of results in the GPR68 mutational scans of Howard et al. (2025).

As for MGNITADNSSMSCTIDHTIHQTLAPVVYVTVLVVGFPANCLSLYFGYLQIKARNELGVYLCNLTVADLFYICSLPFWLQYVLQHDNWSHGDLSCQVCGILLYENIYISVGFLCCISVDRYLAVAHPFRFHQFRTLKAAVGVSVVIWAKELLTSIYFLMHEEVIEDENQHRVCFEHYPIQAWQRAINYYRFLVGFLFPICLLLASYQGILRAVRRSHGTQKSRKDQIQRLVLSTVVIFLACFLPYHVLLLVRSVWEASCDFAKGVFNAYHFSLLLTSFNCVADPVLYCFVSETTHRDLARLRGACLAFLTGSRTGRAREAYPLGAPEASGKSGAQGEEPELLTKLHPAFQTPNSPGSGGFPTGRLA [C310G], the cAMP reporter score in series [1] (pH 5.5) came out at 1.33; in series [1] (pH 6), 3.32; in series [1] (pH 6, modulator: ogerin), 0.903; in series [1] (pH 6.5, modulator: ogerin) it was 2.7. In addition, in series [2], the surface expression score amounted to 0.716.
Consider MGNITADNSSMSCTIDHTIHQTLAPVVYVTVLVVGFPANCLSLYFGYLQIKARNELGVYLCNLTVADLFYICSLPFWLQYVLQHDNWSHGDLSCQVCGILLYENIYISVGFLCCISVDRYLAVAHPFRFHQFRTLKAAVGVSVVIWAKELLTSIYFLMHEEVIEDENQHRVCFEHYPIQAWQRAINYYRFLVGFLFPICLLLASYQGILRAVRRSHGTQKSRKDQIQRLVLSTVVIFLACFLPYHVLLLVRSVWEASCDFAKGVFNAYHFSLLLTSFNCVADPVLYCFVSETTHRDLARLRGACLAFLTHSRTGRAREAYPLGAPEASGKSGAQGEEPELLTKLHPAFQTPNSPGSGGFPTGRLA [C310H], for which the cAMP reporter score in series [1] (pH 5.5) amounted to 0.428; in series [1] (pH 6), 1.59; in series [1] (pH 6, modulator: ogerin), 0.558; in series [1] (pH 6.5, modulator: ogerin) it was 1.79. The surface expression score in series [2] was 0.414.
